This is one part of the list.
T1: UNK ZnF1-3 (human, UniProt Q9C0B0 31-174)
T1 sequence: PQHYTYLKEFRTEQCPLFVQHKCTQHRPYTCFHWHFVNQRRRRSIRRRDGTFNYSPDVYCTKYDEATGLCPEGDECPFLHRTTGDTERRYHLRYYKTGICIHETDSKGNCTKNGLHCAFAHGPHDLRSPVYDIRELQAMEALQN

B1: chr11:77336104:77336105:-_ENSG00000074201_ENST00000525064|hu_mus|hu_hu_hu_mus_False|58_88 (ssRNA)
RNA: GGGAGUUCUACAGUCCGACGAUCCUCACACAUUGCUGUGAACAUCGCCUCCAACGCUGACUUAUCACUGGGCACAAAUCUAAAUUCAGAAAUGGGUUCAACAUCAUCAUUGUCUUCCUCAUCUUCAUCAGAGAGAGGUUCUUUCAACAGAGGAUUGAGCAUCA
B2: chr2:47387770:47387771:-_ENSG00000143933_ENST00000272298|hu_mus|motif|central (ssRNA)
RNA: GGGAGUUCUACAGUCCGACGAUCAAGGUUUAAGGACAAUGACAGUAAGAUAAGGGAAGAAAACAUGGAGGAAUGAAGUCCGGAUUACUAUACAUGCAUAUUUUUUGACAGUAGGGGGGGGGAACCUUUUACAGAUAAGUUACACAACAGAGGAUUGAGCAUCA
B3: 28393762_28401369_261_CDS_ENSMUSG00000004056_ENSMUST00000051356|mouse|control|control (ssRNA)
RNA: GGGAGUUCUACAGUCCGACGAUCCAGGGGGGGUAAGGUCUGGUCAGGGGCCUCGGGCCUCUCCUUAUACCCAAUGAAAGAUCCAUCACUCUUCAGAAGGAAGUACCGUGGCCUCCAGGUCUUGAUGUAUUCACCACGUUUGUGCAACAGAGGAUUGAGCAUCA
B4: chr1:153198750:153198751:+_ENSMUSG00000023150_ENSMUST00000023918|perfect_dup|motif|central (ssRNA)
RNA: GGGAGUUCUACAGUCCGACGAUCUUCUGGAUUGAGAUCAUCAAAUUUAACGUGAGAAAUUCCAUGAGGAUCACUAUCACGGUUAAAGAUUUCAAAUAAAUAGGGACUGCAGCAAGCUAGCACUGCUCUGUGUGCUAACAUUUCCAACAGAGGAUUGAGCAUCA
B5: 152111877_152112083_2306_3pUTR_ENSMUSG00000039068_ENSMUST00000106100|mouse|control|control (ssRNA)
RNA: GGGAGUUCUACAGUCCGACGAUCGUUAUGGGAGCCUUCUGGACCAUCACUCAAAGGCAACAUGGAGUACGAAAGGGAUUCUCCAUCCUUCUUAGGAUCUAAAGGACUUUUUGGUCUAGCGGGCAACCCUACUUUAUCAAAAACCAACAGAGGAUUGAGCAUCA
B6: chr10:61154552:61154553:+_ENSMUSG00000020088_ENSMUST00000020285|mus_mus|motif|central (ssRNA)
RNA: GGGAGUUCUACAGUCCGACGAUCCAGAGCCCAAUGCGCUAUCUGUUCAUAAUUUUAUGAAGUAUGUAAAUUUCAUUUACGGGUUAAAAAAAAAGAAUAGAAAAUCUGGACCAAGUAAAUUGUGAACUGAAAAAGUUAGAGAAGCAACAGAGGAUUGAGCAUCA
B7: chr3:57561382:57561383:-_ENSG00000168374_ENST00000303436|hu_mus|FALSE|FALSE (ssRNA)
RNA: GGGAGUUCUACAGUCCGACGAUCGAGCAGCACUGCAUCCUGCAGCUCAUCUUCCAGAAGCAUUUUCUGCAGCACAGCUGCUCCUUCCUGGAUUCUUUCACGAUCAUUGCUAUCUACCACAAAAAUGAGACCCUGGGUAUUCUGCAACAGAGGAUUGAGCAUCA
B8: 173383957_173384077_3410_3pUTR_ENSG00000113742_ENST00000334035|human|control|control (ssRNA)
RNA: GGGAGUUCUACAGUCCGACGAUCGAGUUUAUAUAUAAACAUCAAAAAUAACAUUUAUACAUUUAUUCUUCAGGAGAGGAAAUGCUAGGUUUCCCACCAGUUGUCAUUAAUUCUAGCUUUGGUAGGUUUCCUGGGGCUUUGACCCAACAGAGGAUUGAGCAUCA
B9: chr16:4561903:4561904:-_ENSG00000089486_ENST00000567695|hu_hu|motif|central (ssRNA)
RNA: GGGAGUUCUACAGUCCGACGAUCAGGCAUGGCCUGAAAGGGGGUCUGCACACUGACUCAAAGGGACAAGUUCCUUCUUAGCGGCCAGGGUCUGAUCAUUCACCCAGGUACAGUGUCCUCUCUACCUGACACCAGGCAGCUCUCCAACAGAGGAUUGAGCAUCA
B10: chr2:30258285:30258286:-_ENSMUSG00000026853_ENSMUST00000028207|mus_hu|FALSE|FALSE (ssRNA)
RNA: GGGAGUUCUACAGUCCGACGAUCGGCCUCCAUGGGGUUAUAGCAGACACCGUAGCCGUCGGGGACCACGGGCCCGAAGAACAUGACACAGUCUGUCUUGGCAGGGACCUGGCUGGUGGAGAGGUGGAAGUGCAUGGCGAUGGCCAACAGAGGAUUGAGCAUCA
B11: chr1:174052150:174052151:+_ENSMUSG00000026553_ENSMUST00000135192|mus_mus|FALSE|FALSE (ssRNA)
RNA: GGGAGUUCUACAGUCCGACGAUCCCUUCUGUCUCGUACUGGAAUUGACAGGAAGGUGGUGGGAAGGGAGGAGUAUAUACUAAGAAUCUGAUAAACAAAUGGCCAGCACAUAGUUUUCAUUGUUCCUUGGAAGGCCUAAGCUGACAACAGAGGAUUGAGCAUCA
B12: chr11:2981123:2981124:-_ENSG00000205531_ENST00000380542|hu_hu|FALSE|FALSE (ssRNA)
RNA: GGGAGUUCUACAGUCCGACGAUCCUUGUAGGUUUUUGUCAGGACUGAGUUGGUAAAGUAGUCGUUGGGUUCAAAGUGGAACUCUAACACAAAAGACAUAGGCUGUCCAGGGUCAGAAAAUUUCACUUUAAUAUCCUGCAGGUGCAACAGAGGAUUGAGCAUCA
B13: chr4:48853911:48853912:+_ENSG00000109180_ENST00000264312|hu_hu|motif|central (ssRNA)
RNA: GGGAGUUCUACAGUCCGACGAUCAGCAGAUUCAUUCAUAGAAGAACUGAAUGGAAUUGGCUCAUAAUGAGGAAGCAUUUCGGUGUUGUCUGCUGCUGGGGAUGUCACAAAAGAUGAUUGACCACUCACACUUGAGUCAUAUUUCAACAGAGGAUUGAGCAUCA
B14: chr11:100882373:100882374:+_ENSMUSG00000019302_ENSMUST00000044721|mus_mus|mus_mus_mus_hu_True|1_68 (ssRNA)
RNA: GGGAGUUCUACAGUCCGACGAUCUUCCUGGUUUGUGUUGAUUUCCUUCAGUUCAUUUUCAAUCUUCUCGAAAUUGGCCUCUAAGUCAAUCAUGUCCCGGGGGAAGGGAACCUCUGGGUUUUCACCGGUGUCCAUAAUUGGGAUCAACAGAGGAUUGAGCAUCA

Target: T1, UNK ZnF1-3
Assay: nsRBNS (natural sequence RNA bind-n-seq); RBNS binding buffer (assumed for nsRBNS): 25 mM Tris pH 7.5, 150 mM KCl, 3 mM MgCl2, 0.01% Triton X-100, 500 ug/ml BSA, 20 U/ml SUPERase-In, 4 C; UNK is unkempt and MSI1 is Musashi-1; names of the RNAs are library labels; protein concentration not given here; high values mean tight binding

| Binder | binding signal |
| --- | --- |
| B1 | 1.16 enrichment R |
| B2 | 1.96 enrichment R |
| B3 | 0.777 enrichment R |
| B4 | 1.74 enrichment R |
| B5 | 1.18 enrichment R |
| B6 | 2.05 enrichment R |
| B7 | 0.722 enrichment R |
| B8 | 0.914 enrichment R |
| B9 | 0.921 enrichment R |
| B10 | 1.21 enrichment R |
| B11 | 1.26 enrichment R |
| B12 | 1.06 enrichment R |
| B13 | 1.93 enrichment R |
| B14 | 0.507 enrichment R |

— article PMC12136788
